PubChem BioAssay AID924 (National Center for Advancing Translational Sciences (NCATS), 2007)
Several values for one entry are separate records, joined by “and”; a condition that tells them apart may be missing. Identical values can stand only once. About 1,200 (0.92%) of roughly 130,000 compounds were called active. The shares of active, inactive and inconclusive entries below differ from those in the screen. Calls come from the whole dose curve; as a rule, active = well fitted cell-killing curve with a large enough effect; inconclusive = small, poorly fitted or top-dose-only effect; inactive = no such curve, though single readings can be large or run the other way. A potency beside an inconclusive call is a rough fit, not a confirmed value.

Assay: qHTS Screen for Compounds that Selectively Target Cancer Cells with p53 Mutations: Cytotoxicity of p53ts Cells at the Permissive Temperature; note: nearly all actives have a fitted effect of over 55% in size;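 for activity change, negative = cytotoxicity: 0% = DMSO and -100% = full killing by reference compound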
Conditions: H1299-p53A138V at 32C, ATP luminescence viability, 24 h; activity change, negative = cytotoxicity: at 46.1 µM (top of the series)
In short: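 H1299-p53 A138V cells (temperature-sensitive p53) exposed 24 h to up to 46 uM compound at 32C, where p53 is wild-type in conformation. Viability read as ATP luminescence and normalised to DMSO and 100 uM tamoxifen. AC50 fitted with the Hill equation.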
Potency is the fitted concentration of half-maximal effect; tags give direction and shape of the fitted curve.

Compound | Potency | activity change, negative = cytotoxicity
CN(C)S(=O)(=O)c1ccc(C(=O)Nc2ccc(OCC(=O)N3CCOCC3)cc2)cc1 | inconclusive: 12.6 µM [cytotoxic, partial curve] | –
COc1ccc(N2CCN(C(=O)c3cccc(NC(=O)c4nsc5ccccc45)c3)CC2)cc1 | inconclusive: 8.91 µM [cytotoxic, partial curve] | –
COC(=O)c1oc2ccc(Br)cc2c1-n1cccc1 | – | inactive: -7.78%
COc1ccccc1N1CCN(CCCCNS(=O)(=O)c2cccc3c(N(C)C)cccc23)CC1 | – | inconclusive: -32.3% [cytotoxic]
Cc1c(S(=O)(=O)Nc2cc(Cl)ccc2Cl)c(=O)n(C)c(=O)n1C | inconclusive: 0.794 µM [cytotoxic, single point] | –
CN(CCCNC(=O)CN1C(=O)CC(C)(C)S(=O)(=O)c2ccccc21)C1CCCCC1 | inconclusive: 0.631 µM [cytotoxic, full curve, poor fit] | –
COc1ccc(-c2csc(NCc3ccco3)n2)cc1 | inconclusive: 12.6 µM [cytotoxic, partial curve] | –
N#CC1=C(N)SC(C(=O)c2ccccc2)C1c1cccs1 (stereo unspecified) | – | inactive: 2.89%
Cc1nc(-c2ccc(S(=O)(=O)NCc3ccc(N(C)C)cc3)cc2)co1 | inconclusive: 25.1 µM [cytotoxic, single point] | –
Cc1nc2ccccc2c2nc3ccccc3n12 | inconclusive: 20 µM [cytotoxic, single point] | –
Cc1[nH]nc(-c2ccc(O)c(C)c2O)c1-c1cnn(-c2ccccc2)c1 | inconclusive: 31.6 µM [cytotoxic, single point] | –
O=C(Nc1nccs1)c1ccc(COc2ccc(F)cc2)o1 | – | inactive: -0.759%
Cc1ccc(S(=O)(=O)c2c(C)nn(C(C)(C)C)c2OC(=O)c2cccs2)cc1 | inconclusive: 31.6 µM [cytotoxic, single point] | –
COc1ccc(NC(=O)c2cnc[nH]2)cc1 | active: 7.94 µM | –
N#Cc1cccc(NC(=O)c2cc3c(s2)-c2ccc(Cl)cc2SC3)c1 | inconclusive: 31.6 µM [cytotoxic, single point] | –
CO[C@@H]1CC[C@@]2(C)[C@@H](CC[C@@]3(C)[C@H]2CC=C2[C@H]4CC(C)(C)[C@H](O)[C@@H](OC(C)=O)[C@]4(CO)[C@H](O)C[C@]23C)[C@@]1(C)CO (tested in a mixture with another compound) | inconclusive: 12.6 µM [cytotoxic, single point] | –
Cc1ccc(C(=O)Nc2ccccc2C(=O)NC(C(=O)O)C(C)C)cc1 (stereo unspecified) | inconclusive: 12.6 µM [cytotoxic, single point] | –
O=C(c1nc(-c2ccccc2)n(-c2ccccc2)n1)N1CCCCCC1 | – | inactive: 7.94%
O=S(=O)(NCC(Nc1ccc(Cl)cc1)c1ccccc1)c1ccccc1 (stereo unspecified) | inconclusive: 31.6 µM [cytotoxic, single point] | –
COc1ccc(-c2nc3cnc(Nc4cccc(OC)c4)nc3n(Cc3cccs3)c2=O)cc1 | inconclusive: 15.8 µM [cytotoxic, single point] | –
Cc1ccc(CNCc2c(C(=O)O)n(Cc3ccc(C)cc3)c3cc(C)ccc23)cc1 | inconclusive: 20 µM [cytotoxic, single point] | –
O=C(Nc1cccc(Br)c1)c1ccc(Cl)c(S(=O)(=O)N2CCOCC2)c1 | inconclusive: 20 µM [cytotoxic, single point] | –

Compound | Potency | activity change, negative = cytotoxicity
Cc1c(CC(=O)NCc2ccccc2Cl)c(=O)oc2cc(O)ccc12 | inconclusive: 10 µM [cytotoxic, partial curve] | –
Cc1nn(C(C)(C)C)c(OC(=O)c2c(F)cccc2F)c1Sc1ccccc1 | inconclusive: 12.6 µM [cytotoxic, single point] | –
CCN1CCCC1CNC(=O)Cn1cnc2sc(C)c(S(=O)(=O)N3CCC(C)CC3)c2c1=O (stereo unspecified) | inconclusive: 0.794 µM [cytotoxic, full curve] | –
COc1cccc(NCc2cc(=O)oc3cc(-c4ccccc4)c(O)cc23)c1 | inconclusive: 0.01 µM [cytotoxic, full curve, poor fit] | –
COc1ccc(CCNC(=O)CCn2c(=O)c3ccccc3n(Cc3ccccc3C)c2=O)cc1OC | inconclusive: 31.6 µM [cytotoxic, single point] | –
Nc1nc(-c2ccc3c(c2)CCCC3)cs1 | inconclusive: 10 µM [cytotoxic, partial curve] | –
CN(C)c1ccc(/C=N/n2ncc3ccccc32)cc1 | active: 12.6 µM | –
CCCC(=O)NCCc1c2n(c3ccc(OC)cc13)CCCc1ccccc1-2 | inconclusive: 31.6 µM [cytotoxic, single point] | –
Cc1ccc2nc(-c3c[nH]c4ccccc34)c(Nc3ccc(F)cc3)n2c1 | inconclusive: 14.1 µM [cytotoxic, single point] | –
COc1ccc(-n2c(=O)c(-c3ccc(Cl)cc3)nc3cnc(N4CCNCC4)nc32)cc1 | inconclusive: 31.6 µM [cytotoxic, single point] | –
COC(=O)NC(c1ccc(Cl)cc1)C(C(C)=O)C(=O)OC (stereo unspecified) | – | inactive: 7.7% [at 9.22 µM]
CC(=O)Oc1c2c(c3c(c1CC=C(C)C)O[C@@]14C(=CC5CC1C(C)(C)OC4(C/C=C(\C)C(=O)O)C5=O)C3=O)OC(C)(CCC=C(C)C)C=C2 (stereo partly specified) | inconclusive: 25.1 µM [cytotoxic, single point] | –
Cc1cc(C(=O)Cn2nnc3ccccc3c2=O)c(C)n1Cc1cccs1 | active: 15.8 µM | –
CN(C)c1ccc(-c2ccc3ncnc(-n4ccnc4)c3c2)cc1 | inconclusive: 31.6 µM [cytotoxic, single point] | –
Cc1ccc(N=Nc2c(O)c(S(=O)(=O)O)cc3cc(S(=O)(=O)O)ccc23)c(C)c1 | – | inactive: -2.39% [at 9.22 µM]
CC(C)=CCC/C(C)=C/CO | inactive | –
CC(C)c1nc(SCC(=O)N2CCCC2)c2ccccc2n1 | inconclusive: 12.6 µM [cytotoxic, partial curve] | –
Cc1ccc(CSc2nc3c(c(=O)[nH]2)C(c2cccc(F)c2F)CC(=O)N3)cc1 (stereo unspecified) | inconclusive: 3.55 µM [cytotoxic, single point] | –
CCOc1ccc(-n2cc(C(=O)NCc3ccco3)c3cc(OC)c(OC)cc3c2=O)cc1 | inconclusive: 25.1 µM [cytotoxic, single point] | –
Cc1ccc(C)c(Cn2c(=O)cc(C)c3c(C)nn(C)c32)c1 | – | inactive: -8.94%
COc1cc(NC(=O)c2ccc(NC(=O)N3CCSc4ncccc43)cc2)cc(OC)c1 | – | inactive: -11.2%
CO[C@@H]1/C=C\CC(=O)N2CCC[C@@H]2C(=O)OC[C@@H](C)C(=O)OC[C@H]1C | – | inactive: 7.79% [at 9.22 µM]

Compound | Potency | activity change, negative = cytotoxicity
COc1ccc(NC(=O)Nc2ccccc2OCc2cc(=O)n3ccccc3n2)c(OC)c1 | inconclusive: 31.6 µM [cytotoxic, single point] | –
Cc1cccc(C#Cc2ccccc2)n1 | active: 12.6 µM | –
COc1cc2c(cc1OC)CN(C(=O)CC1CC3CCC1C3)CC2 (stereo unspecified) | active: 10 µM | –
O=C(NCc1ccccc1)c1ccc2c(c1)nc1n2CCCCC1 | inconclusive: 12.6 µM [cytotoxic, partial curve] | –
COc1cccc(-c2cc(C(F)(F)F)n3ncc(C(=O)NCC4CCCO4)c3n2)c1 (stereo unspecified) | inconclusive: 25.1 µM [cytotoxic, single point] | –
CCO/C=C1\C(=O)N(CC)c2ccccc21 | inconclusive: 0.316 µM [cytotoxic, full curve] | –
CCCc1nc(Nc2nc3ccccc3o2)nc(C)c1C(=O)OCC | inconclusive: 15.8 µM [cytotoxic, partial curve] | –
CCOC(=O)c1cc(S(=O)(=O)N2CCN(c3ccc(F)cc3)CC2)[nH]n1 | – | inactive: -3.09%
COc1ccc(C/C(O)=C(\C#N)c2nc3ccccc3s2)cc1 | inconclusive: 20 µM [cytotoxic, single point] | –
O=C(Cn1cc(C(=O)c2ccco2)c2ccccc21)Nc1ccccc1C(F)(F)F | inconclusive: 31.6 µM [cytotoxic, single point] | –
Cc1ccc(CSC2=NC(C)(C)Nc3ccccc32)c(C)c1 | – | inactive: -1.65%
Oc1c(C(c2ccco2)N2CCC3(CC2)OCCO3)sc2ncnn12 (stereo unspecified) | inconclusive: 31.6 µM [cytotoxic, single point] | –
COc1cc(NC(=O)CC(C)C)ccc1NC(=O)c1ccco1 | inconclusive: 12.6 µM [cytotoxic, partial curve] | –
Cc1ccccc1Nc1c(-c2c[nH]c3ccccc23)nc2ccc(Cl)cn12 | inconclusive: 35.5 µM [cytotoxic, single point] | –
CC(C)(C)NC(=O)Nc1ccc2nccnc2c1 | inconclusive: 25.1 µM [cytotoxic, single point] | –
CC(=O)Nc1ccc2nc(-c3cccs3)[nH]c2c1 | inconclusive: 7.94 µM [cytotoxic, partial curve] | –
CC(C(=O)O)c1ccc(N2Cc3ccccc3C2=O)cc1 (stereo unspecified) | active: 10 µM | –
CCc1cccc(C)c1NC(=O)CSc1nc2ccncc2[nH]1 | – | inactive: -11.5%
CC1CCC2C(=O)OC(Cc3ccccc3)CN2C1c1ccc(Br)cc1 (stereo unspecified) | – | inactive: -6.32% [at 9.22 µM] and inactive: 3.43% [at 9.22 µM]
Nc1nc(Nc2cccc(F)c2)nc2ccccc12 | inconclusive: 12.6 µM [cytotoxic, partial curve] | –
Clc1ccccc1Cn1c(-c2cccs2)nc2ccccc21 | inconclusive: 31.6 µM [cytotoxic, single point] | –
Cc1ccc(S(=O)(=O)N(CC(=O)Nc2cccnc2)c2cc(Cl)ccc2C)cc1 | inconclusive: 12.6 µM [cytotoxic, single point] | –
